Assays:
[1] = system: COV434 AMHR-II transfected cell line; settings: high expressing COV434 AMHR2 transfected cell line, 72 hours
Protocol: (§1) Induction of apoptosis is confirmed by caspase activation, evaluated using the Apo-ONE Homogeneous Caspase 3/7 assay according to the manufacturer's instruction. Caspase 3/7 activation was measured multiplexed with the proliferation CellTiter Blue assay. […] Metabolic activity of viable cells were evaluated by adding the resazurin reagent for 2 hours at 37° C. and fluorescence was recorded at 544 nm excitation and 590 nm emission wavelengths. Then the caspase activity was measured in the same wells by adding the caspase substrate and cells were incubated for another two hours prior fluorescence recording at 485 nm excitation and 538 nm emission wavelengths.

COV434 WT cell line = settings: low expressing COV434 WT cell line, 72 hours
Protocol: as §1

[2] = system: COV434 AMHR-II transfected cell line; experiment: In vitro cell proliferation / cytotoxic assay (CellTiter Blue); format: cell-based; settings: 72 hours, ND: could not be calculated
Protocol: The effects on cells viability was measured using resazurin dye reduction assay (CellTiter Blue, Promega). Cells were plated at 8000 cells per well onto 96-well plate (BD Falcon). […] Plates were incubated at 37° C. under 5% CO2 for a further 72 hours. […] CellTiter Blue reagent that enable quantification of viable cells by measurement of metabolic activity was added and plates were read with a fluorometer after a minimum of 2 hours with excitation and emission wavelengths of 544 nm and 590 nm respectively. Anti-proliferative effects were evaluated on COV434 AMHR-II transfected cell line (˜20000 receptors), COV434 WT (˜2000 receptors) and negative cell (no-expression).

[3] = molecular target: T1, AMHR2 receptor expressed at the surface membrane of the COV434 AMHR2 transfected cell line (Homo sapiens, UniProt Q16671); experiment: FACS binding to AMHR-II receptor at the surface of the COV434 AMHR-II transfected cell line; settings: concentrations 0.5 to 75 μg/ml, Hill slope fit (Example 4)
T1 construct: expressed in transfected cells; host or cells: COV434
T1 sequence (Q16671 18-573): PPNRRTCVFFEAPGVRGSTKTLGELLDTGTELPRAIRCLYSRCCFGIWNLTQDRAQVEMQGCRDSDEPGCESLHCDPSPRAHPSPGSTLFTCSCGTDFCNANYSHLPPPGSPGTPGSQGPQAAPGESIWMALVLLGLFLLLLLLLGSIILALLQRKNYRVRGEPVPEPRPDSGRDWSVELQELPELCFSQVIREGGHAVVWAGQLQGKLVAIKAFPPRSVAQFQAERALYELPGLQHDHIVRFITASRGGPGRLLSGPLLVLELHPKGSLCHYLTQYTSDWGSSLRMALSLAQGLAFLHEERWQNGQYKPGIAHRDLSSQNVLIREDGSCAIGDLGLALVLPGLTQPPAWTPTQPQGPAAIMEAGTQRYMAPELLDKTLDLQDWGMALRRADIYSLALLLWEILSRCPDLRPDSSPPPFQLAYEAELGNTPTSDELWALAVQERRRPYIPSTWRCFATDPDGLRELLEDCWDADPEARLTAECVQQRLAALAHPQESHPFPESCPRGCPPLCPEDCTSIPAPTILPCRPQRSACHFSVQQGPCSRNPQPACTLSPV
Protocol: The COV434 AMHR-II transfected and the COV434 WT cell lines were maintained in DMEM/GlutaMax (Gibco) supplemented with 10% FBS, penicillin 100 U/ml and Streptomycin 100 μg/ml. Geneticin at 666 μg/ml was added for the COV434 AMHR-II transfected cell line. […] After washes, Phycoerythrin-conjugated anti-human IgG antibody (1:200, Beckman-Coulter) was added for 1 hour at room temperature. FACS analysis of the resuspended cells was done on a BD Accuri™ C6 flow cytometer (BD Bioscience).
The binding capacity of the anti-AMHR-II antibody variants K4D24 and 6C59 to the AMHR-II expressing cell lines was evaluated by flow cytometry analysis in the same manner as example 4. FACS analysis with COV434-AMHR-II transfected cell line is described in FIG. 16. The Kapparent of the K4D24 and 6C59 variants were improved by a factor of 20 and 40 fold respectively as compared to the 3C23K (0.098 μg/ml and 0.05 μg/ml versus 2.2 μg/ml). The binding capacity of these variants was also assayed on the low expressing AMHR-II COV434 WT cell line. In this setting the binding was evaluated with three concentrations of variants (25, 10 and 5 μg/ml) and three concentrations of 3C23K (50, 25 and 10 μg/ml).

[4] = system: COV434 AMHR-II transfected cell line; experiment: Antibody internalization (flow cytometry and immunofluorescence imaging); format: cell-based
Protocol: Antibody mediated internalization were assessed by flow cytometry analysis and by immunofluorescence imaging. Flow cytometry experiments was done on the two expressing AMHR-II cell lines: COV434 WT with low level of expression and COV434-AMHR-II transfected cell line with high level of expression. Briefly, 5×10^5 cells were incubated with 3C23K at 10 μg/ml and incubated 30 min at 4° C. After washes, DMEM/GlutaMax (Gibco) medium, cold or pre-warmed at 37° C., was added and incubated at 4° C. or 37° C. at different time points (15 min, 30 min and 60 min). Phycoerythrin-conjugated anti-human IgG antibody (1:200, Beckman-Coulter) was added for 30 min at 4° C. FACS analysis of the resuspended cells was done on a BD Accuri™ C6 flow cytometer (BD Bioscience). As depicted in FIGS. 9A and 9B, the internalization of the 3C23K observed at 37° C. is fast whatever the level of AMHR-II expression. For immunofluorescence imaging experiments, COV434 AMHR-II transfected cell line were grown on poly-D lysine coated glass coverslips overnight at 37° C. at a density of 75000 cells/cm^2. […] Internalization was quantified by counting the number of visible vesicles in cell section at different incubation time using Image J software.
The internalization capacity of the K4D24 and 6C59 variants was assayed by fluorescence cytometry analysis in the same manner as in Example 8 except for the concentrations used. […]

B1: GM103 (conjugate)
heavy: QVRLVQSGAEVKKPGASVKVSCKASGYTFTSYHIHWVRQAPGQRLEWMGWIYPGDDSTKYSQKFQGRVTITRDTSASTAYMELSSLRSEDTAVYYCTRGDRFAYWGQGTLVTVSS[human IgG1 constant region left out here]
light: DIQMTQSPSTLSASVGDRVTITCRASSSVRYIAWYQQKPGKAPKLLTYPTSSLKSGVPSRFSGSGSGTEFTLTISSLQPDDFATYYCLQWSSYPWTFGGGTKVEIKRTVAAPSVFIFPPSDEQLKSGTASVVCLLNNFYPREAKVQWKVDNALQSGNSQESVTEQDSKDSTYSLSSTLTLSKADYEKHKVYACEVTHQGLSSPVTKSFNRGEC
- activation of caspase 3/7 [1]: effective to induce apoptosis by activation of the caspase 3/7
- activation of caspase 3/7 (COV434 WT cell line): effective to induce apoptosis by activation of the caspase 3/7
- IC50 ([2]; COV434 AMHR2^High (~20000 receptors), read-out: IC50 (nM) ± S.E.M): 4.7 nM
- Minimum Viability (%) ([2]; COV434 AMHR2^High): 10%
- KDapparent [3]: 3.1 µg/mL
- time in which the majority of the AMHR2 labeling disappeared from the cell surface ([4]; flow cytometry): ≤ 60 min
- internalization of the conjugate compared with unconjugated 3C23K ([4]; immunofluorescence imaging and flow cytometry): retains its property of rapid internalization

From patent US10509035B2, “Antibodies, antibody drug conjugates and methods of use” (GAMAMABS PHARMA, priority 2015, dated 2019)
